# Test results reported in publication PMC4336329 (PLoS ONE, 2015).
# Among all 310,000 compounds or so, about 2,200 (0.71%) showed an effect of 50% or more. Effects have a minus sign here. The list shows a part of the results.
# Target: human ether-à-go-go-related gene (hERG) potassium channel (human, UniProt Q12809)
# Test: primary screen, population patch clamp on CHO cells stably expressing hERG
# Sequence of human ether-à-go-go-related gene (hERG) potassium channel (Q12809 whole entry, looked up): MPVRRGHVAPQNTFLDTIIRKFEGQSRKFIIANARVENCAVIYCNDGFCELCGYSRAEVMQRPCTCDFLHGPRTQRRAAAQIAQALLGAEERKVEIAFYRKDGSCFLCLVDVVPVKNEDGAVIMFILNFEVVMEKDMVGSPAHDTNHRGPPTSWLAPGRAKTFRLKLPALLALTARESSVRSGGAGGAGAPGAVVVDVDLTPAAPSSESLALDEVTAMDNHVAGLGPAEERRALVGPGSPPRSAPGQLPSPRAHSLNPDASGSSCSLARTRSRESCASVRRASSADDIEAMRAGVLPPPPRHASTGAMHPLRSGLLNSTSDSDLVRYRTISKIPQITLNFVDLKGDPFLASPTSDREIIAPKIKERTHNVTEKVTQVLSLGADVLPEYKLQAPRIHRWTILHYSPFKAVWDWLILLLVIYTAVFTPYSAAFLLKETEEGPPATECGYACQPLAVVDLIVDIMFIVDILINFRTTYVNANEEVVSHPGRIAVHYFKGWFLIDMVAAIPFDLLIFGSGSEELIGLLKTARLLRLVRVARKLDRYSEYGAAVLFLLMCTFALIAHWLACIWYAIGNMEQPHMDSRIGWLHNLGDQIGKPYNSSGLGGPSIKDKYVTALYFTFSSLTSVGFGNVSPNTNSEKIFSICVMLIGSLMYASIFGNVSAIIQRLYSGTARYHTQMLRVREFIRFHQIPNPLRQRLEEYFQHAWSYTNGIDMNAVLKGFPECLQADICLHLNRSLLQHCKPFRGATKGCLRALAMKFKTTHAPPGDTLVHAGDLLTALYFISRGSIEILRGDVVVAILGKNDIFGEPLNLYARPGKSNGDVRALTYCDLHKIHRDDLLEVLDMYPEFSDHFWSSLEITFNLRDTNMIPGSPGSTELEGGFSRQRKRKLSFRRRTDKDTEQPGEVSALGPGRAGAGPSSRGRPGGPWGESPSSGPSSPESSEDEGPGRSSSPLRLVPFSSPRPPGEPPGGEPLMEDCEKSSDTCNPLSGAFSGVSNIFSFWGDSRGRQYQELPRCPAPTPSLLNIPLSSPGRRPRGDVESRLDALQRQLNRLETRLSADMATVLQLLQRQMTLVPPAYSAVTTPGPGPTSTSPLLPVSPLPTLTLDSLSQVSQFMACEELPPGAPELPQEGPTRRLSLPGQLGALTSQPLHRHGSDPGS
row,Structure (SMILES),"hERG current change (%, negative = inhibition) at 1uM [%]"
1,COCCNC(=O)[C@H]1N2C(=O)c3c(ccc(OC)c3OC)C2SC1(C)C (some centres unmarked),10.4
2,O=C(NCCc1ccccc1)C1CC(=O)N(CCc2ccccc2)C1 (centres unmarked),20.4
3,Cc1ccc(NC(=O)c2c(C(=O)Nc3ccccc3)sc3nc(C)cc(=O)n23)cc1,19.2
4,Cc1cc(C)nc(SCNC(=O)c2ccc(F)cc2)n1,8.24
5,CC(CCc1ccccc1)NS(=O)(=O)c1ccccc1Cl (centres unmarked),6
6,Cc1ccc2c(C)c(C(=O)Nc3c(C)n(C)n(-c4ccccc4)c3=O)oc2c1C,1.47
7,COc1ccc(N2C(=O)c3cccc4cccc(c34)C2=O)nn1,-0.519
8,CC1CN(C(=O)COC(=O)[C@@H]2CC(O)CN2S(=O)(=O)c2ccc3c(c2)OCCO3)CC(C)O1 (some centres unmarked),4.78
9,CCOC(=O)N1CCN(CCCc2ccccc2)CC1,5.69
10,O=C(O)CCCC(=O)Nc1ccc(Br)cc1C(=O)O,6.35
11,Cc1cc(C(F)F)nn1CC(=O)N1CCSCC1,-0.544
12,COc1ccc(/C=C/C(=O)NC(=S)Nc2ccc(S(=O)(=O)Nc3ccc(OC)nn3)cc2)cc1,11.8
13,Cc1cccc2[nH]c3c(N4CCC5(CC4)OCCO5)ncnc3c12,4.29
14,CC(C)(C)c1cc2nc(N)nc(N)n2n1,11.2
15,COc1ccc(C(C)NC(=O)C23CC4CC(CC(C4)C2)C3)cc1 (centres unmarked),17.4
16,Cn1cc(Cl)c(C(=O)Nc2nc3ccccc3s2)n1,2.83
17,c1ccc(Oc2nc(Oc3ccccc3)nc(N3CCOCC3)n2)cc1,7.06
18,COCCNC(=O)C(OC(=O)c1ccco1)c1ccccc1F (centres unmarked),9.12
19,COC(=O)c1cc2sccc2n1Cc1nc(-c2ccc(Cl)cc2)oc1C,14.4
20,COc1ccc(-c2csc(-c3cc4ccccc4oc3=N)n2)cc1,0.392
21,Cl.N=c1c[n+](N2CCOCC2)[n-]o1,16.5
22,O=C(NCCc1ccc(Cl)cc1Cl)c1ccc2nc[nH]c2c1,16.8
23,Cc1cc(C)n(-c2c(F)c(F)c(CN3CCOCC3)c(F)c2F)n1,11

row,Structure (SMILES),"hERG current change (%, negative = inhibition) at 1uM [%]"
1,COCCN(Cc1ccccc1)C(=O)C1CCN(S(=O)(=O)c2ccc3c(c2)OCCO3)CC1,2.69
2,CC(=Nc1c(C)n(C)n(-c2ccccc2)c1=O)c1c(O)n(Cc2ccccc2)c(=O)[nH]c1=O,18.8
3,O=S1(=O)CCC(N=Cc2cc(Br)ccc2O)C1 (centres unmarked),-1.7
4,CCC(=O)Nc1ccccc1C(=O)N1CCOCC1,16.3
5,Cc1ccc(NC(=O)CSc2nnc(Cc3ccccc3)o2)c(C)c1,8.91
6,COc1ccc(OC)c(CC(=O)Nc2ccc3c(c2)CCC3)c1,15
7,Oc1c(C(Nc2cccc(C(F)(F)F)c2)c2ccncc2)ccc2cccnc12 (centres unmarked),11.8
8,CCOCCCNc1nc2nc3ccc(C)cn3c(=O)c2cc1C(=O)NCC1CCCO1 (centres unmarked),-76
9,CCn1nnnc1NCc1ccc(Cl)cc1,12
10,CCCn1c(SCC(=O)NCc2ccc3c(c2)OCO3)n[nH]c1=O,1.82
11,Cc1cc(C)n(C(=O)CNC(=O)/C=C/c2ccccc2)n1,5.83
12,CCC(C)N(C)C1CCN(C(=S)Nc2ccc(OC)cc2)CC1 (centres unmarked),3.89
13,CCc1cc(=O)oc2cc(OCC(=O)NCCN3CCOCC3)c(Cl)cc12,10.5
14,Cc1c(C(=O)OCC(=O)N2CCCC2=O)oc2ccccc12,15.7
15,CCN(CC)c1ccc(NC(=O)c2cccnc2)cc1,7.65
16,O=C(NCc1ccccc1)c1ccc2c(c1)C(=O)N(Cc1ccncc1)C2=O,-7.46
17,CCCCn1c(N)c(N(CCC(C)C)C(=O)COC(=O)c2cccnc2Cl)c(=O)[nH]c1=O,8.18
18,CCN(CC)CCNC(=O)CCc1c(C)nc2c(c(C)nn2-c2ccc(C)cc2)c1C,1.45
19,COc1ccc(N2C(=O)[C@@H]3[C@H](C2=O)[C@H]2C=CC=NN2[C@@H]3C(=O)Nc2ccc(Cl)cc2)cc1,0.474
20,COc1ccccc1-c1nc(-c2ccc(Br)o2)no1,14.9
21,COc1ccc(CCNC(=O)CSc2nnc(CNc3ccc(Cl)cc3)o2)cc1OC,-3.87
22,O=C1c2ccccc2NC(c2ccccc2O)N1c1ccc(F)cc1 (centres unmarked),8.4
23,COc1ccc(/C=C/C(=O)c2ccc([N+](=O)[O-])o2)cc1OC,13.1

row,Structure (SMILES),"hERG current change (%, negative = inhibition) at 1uM [%]"
1,Cn1c(=O)c(C(=O)NNC(=O)c2ccccc2Cl)c(O)c2ccccc21,10.3
2,CCCC1NC(=S)N(C2CCCCC2)C1=O (centres unmarked),10.8
3,CC(C)Oc1ccccc1C1(c2ccccc2)NC(=O)NC1=O (centres unmarked),14.5
4,Cc1ccc2c(c1)NC(=O)C(CC(=O)NCCCN1CCCCC1C)O2 (centres unmarked),2.12
5,Cc1ncc(CO)c(/C=N/NC(=O)c2cccc(S(=O)(=O)N3CCCC3)c2)c1O,11.3
6,N/C(=N\OC(=O)/C=C/c1ccccc1)c1ccccc1,10.4
7,COc1ccc(CNC(=O)Cn2nc([N+](=O)[O-])c(Br)c2C)cc1,1.36
8,CCOC(=O)C1=C(CNCCc2ccc(Cl)cc2)NC(=O)NC1c1ccc2c(c1)OCO2 (centres unmarked),3.23
9,CCOC(=O)c1ccc(NS(=O)(=O)c2c(C)n[nH]c2C)cc1,5.61
10,COc1cc(OC)c2c(-c3ccccc3)cc(=O)oc2c1C(CC(=O)N1CCCC1)c1ccc2c(c1)OCO2 (centres unmarked),14.6
11,O=C1C2C3C=CC(C3)C2C(=O)N1Nc1c(Cl)cc(Cl)cc1Cl (centres unmarked),8.13
12,COc1cc(/C=C/C(=O)OCC(=O)NC(=O)NC23CC4CC(CC(C4)C2)C3)ccc1OCC#N,14.4
13,COc1ccc(CCNC(=O)C2CCCN(S(=O)(=O)c3cnc[nH]3)C2)cc1OC (centres unmarked),9.59
14,O=Cc1ccc(Oc2cc(-c3ccccc3)nc(-c3ccccc3)n2)cc1,11.8
15,O=C(NCC1CCCO1)c1cccc(Oc2ccc([N+](=O)[O-])cc2)c1 (centres unmarked),-6.66
16,Br.Cc1cccc(C2CN(C)CCc3c2cc(O)c(O)c3Cl)c1 (centres unmarked),-20.6
17,Cc1nnc(SCC(=O)N2CCCC2)n(N)c1=O,8.28
18,c1ccc(CN2CCCC3(CCCN(Cc4nc(CC5CC5)no4)C3)C2)cc1 (centres unmarked),1.67
19,CC1=[N+]([O-])C(N2CCOCC2)C(O)(c2ccccc2)C1 (centres unmarked),12.1
20,O=C(NCc1ccccc1)N[C@@H](Cc1ccccc1)C(=O)O,-7.86
21,OC(COc1ccc2ccccc2c1)Cn1ccnc1 (centres unmarked),7.23
22,CCOC(=O)c1ccc(N2C(=O)CC(N3CCC(C(N)=O)(N4CCCCC4)CC3)C2=O)cc1 (centres unmarked),10.3
23,CCN(C(=O)CN1CCN(c2cccc(C(F)(F)F)c2)CC1)c1c(N)n(Cc2ccccc2)c(=O)[nH]c1=O,-6.82

row,Structure (SMILES),"hERG current change (%, negative = inhibition) at 1uM [%]"
1,Cc1cc(C(=O)CN2C(=O)C(=O)N(Cc3ccccc3)C2=O)c(C)n1Cc1ccc(F)cc1,11.9
2,S=C(c1cn(CCOc2cccc3ccccc23)c2ccccc12)N1CCCC1,-2.23
3,COc1ccc(NC(C)=O)cc1NC(=O)c1cccc(S(=O)(=O)N2CCc3ccccc32)c1,0.977
4,COc1ccc2cc(-c3[nH]ncc3CNCCn3nc(C)cc3C)ccc2c1,-1.6
5,CCCCCCCC(=O)NN1CCOCC1,6.58
6,CC12CCC(=O)N1C(C(=O)NNC(=O)COc1ccccc1Cl)CS2 (centres unmarked),5.61
7,Cc1cccc(N(CC(=O)N2CCCC2)S(=O)(=O)c2ccccc2)c1,-13.6
8,CCc1ccc(NS(=O)(=O)c2cc(OC)ccc2OC)cc1,7.45
9,Cc1ccc(CCNC(=O)CSCc2ccc(F)cc2)cc1,9.78
10,CN1CCN(c2ccc(NC(=O)c3ccc(-c4cccc([N+](=O)[O-])c4)o3)cc2)CC1,4.68
11,CC(=O)CSc1ncnc2c1cnn2-c1ccccc1,17.3
12,O=C(c1ccc(F)cc1)C1CCN(C(=S)Nc2ccc(F)cc2)CC1,3.68
13,CCn1c(SCC(=O)O)nnc1-c1ccccc1,12
14,Cc1ccc(Nc2nc(N)nc(CSc3nc(C)cc(C)n3)n2)cc1,8.5
15,Cc1ccc2c(c1)NC(C(C)(C)C)CO2 (centres unmarked),5.94
16,CC1(c2ccc(OC(F)F)cc2)NC(=O)N(CC(=O)Nc2ccc(OC(F)F)cc2)C1=O (centres unmarked),-100
17,Cc1cc(C)c(C(=O)N(CCN(C)C)CC2CCCN(Cc3ccccc3F)C2)o1 (centres unmarked),-3.53
18,CCC(C)(C)n1nnnc1C(C(C)C)N(Cc1cccnc1)Cc1ccco1 (centres unmarked),16.2
19,Cc1ccc(S(=O)(=O)NCC(=O)N/N=C/c2ccccc2O)cc1,12
20,Cc1ccc(N(Cc2ccc([N+](=O)[O-])cc2)C(=O)c2ccco2)cc1,12.5
